# Measurements as given in the antibiotic and cytotoxicity screens of Wong et al. (2023).
# This is one part of the list.
# Assays:
# [1] = test system: HSkMC (human skeletal muscle cells); assay: cytotoxicity call (relative viability < 0.9); settings: 10 µM
# [2] = test system: HepG2; assay: cytotoxicity call (relative viability < 0.9); settings: 10 µM
# [3] = test system: S. aureus RN4220; assay: growth inhibition call (relative growth <= 0.2); settings: 50 µM
SMILES,cytotoxicity call [1],cytotoxicity call [2],growth inhibition call [3]
C[C@@H]1CCCCO[C@@H](CN(C)C(=O)Nc2ccc(C(F)(F)F)cc2)[C@H](C)CN([C@@H](C)CO)C(=O)c2cc(NS(=O)(=O)c3cccs3)ccc2O1,inactive,inactive,inactive
COc1ccc(S(=O)(=O)N(C)C[C@H]2OCCCC[C@@H](C)Oc3ccc(NS(=O)(=O)c4cn(C)cn4)cc3C(=O)N([C@H](C)CO)C[C@@H]2C)cc1,inactive,inactive,inactive
O=C(O)CCN=C1NC(=O)CS1,inactive,active,inactive
Cc1ccc(S(=O)(=O)Nc2ccc3c(c2)C(=O)N([C@H](C)CO)C[C@@H](C)[C@@H](CN(C)C(=O)CCC(F)(F)F)OCCCC[C@H](C)O3)cc1,inactive,inactive,inactive
COCC#Cc1ccc([C@H]2[C@@H](CO)N3C(=O)CN(C(=O)c4cccnc4)C[C@H]23)cc1,inactive,inactive,inactive
COc1cc2c(cc1OC)CN(C(=O)[C@@H]1[C@H]3C(=O)O[C@H](c4ccccc4)[C@H](c4ccccc4)N3[C@H](c3ccccc3OCCO)[C@@]13C(=O)Nc1ccc(C#CC4(O)CCCCCC4)cc13)CC2,inactive,inactive,inactive
COc1ccc(S(=O)(=O)N[C@@H]2C=C[C@H](CC(=O)NCCc3ccncc3)O[C@@H]2CO)cc1,inactive,inactive,inactive
C[C@@H]1CN([C@@H](C)CO)C(=O)c2cc(Br)cnc2O[C@H]1CN(C)S(=O)(=O)c1cccs1,inactive,inactive,inactive
C[C@H]1CN([C@@H](C)CO)C(=O)Cc2cc(NC(=O)CCN3CCOCC3)ccc2O[C@@H]1CN(C)S(C)(=O)=O,inactive,inactive,inactive
C[C@H](CO)N1C[C@H](C)[C@@H](CN(C)S(C)(=O)=O)Oc2c(NC(=O)Nc3ccc(F)cc3)cccc2C1=O,inactive,inactive,inactive
COc1ccc(CN(C)C[C@@H]2Oc3c(NC(=O)c4cnccn4)cccc3C(=O)N([C@H](C)CO)C[C@H]2C)cc1,inactive,inactive,inactive
COc1cccc(S(=O)(=O)N(C)C[C@@H]2Oc3ncc(C#CC(C)C)cc3C(=O)N([C@H](C)CO)C[C@H]2C)c1,inactive,inactive,inactive
C[C@@H]1CN([C@@H](C)CO)C(=O)c2cc(NC(=O)c3ccccc3)ccc2O[C@@H](C)CCCCO[C@H]1CN(C)S(=O)(=O)c1ccc(F)cc1,inactive,inactive,inactive
CC(C)NC(=O)N(C)C[C@H]1Oc2ccc(NC(=O)C3CCCCC3)cc2C(=O)N([C@@H](C)CO)C[C@H]1C,inactive,inactive,inactive
N#CCC(=O)NCc1ccccn1,inactive,inactive,inactive
CCOc1ccc(C(C)(C)N)cc1,inactive,inactive,inactive
C=CCC[C@@H](Cc1ccc(F)cc1)C(=O)OC[C@@H](NC(=O)[C@H](CC=C)CC(=O)N(CCO)Cc1ccccc1)C(C)(C)C,inactive,inactive,inactive
COc1ccc(NC(=O)Nc2ccc3c(c2)C(=O)N([C@H](C)CO)C[C@H](C)[C@H](CN(C)C(=O)Nc2cccc4ccccc24)OCCCC[C@H](C)O3)cc1,inactive,inactive,inactive
Clc1ccc(-c2onc3cc(-c4ccccc4)ccc23)cc1,inactive,active,inactive
C[C@@H]1CCCCO[C@@H](CN(C)C(=O)Nc2ccc(F)cc2)[C@@H](C)CN([C@@H](C)CO)C(=O)c2cc(NC(=O)CCCN(C)C)ccc2O1,inactive,inactive,inactive
CN(C)/N=N/c1nc[nH]c1C(N)=O,inactive,inactive,inactive
CN(C)CC(=O)N1CC(=O)N2[C@H](C1)[C@H](c1ccc(C#Cc3cccnc3)cc1)[C@@H]2CO,inactive,inactive,inactive
C[C@@H]1CN([C@H](C)CO)C(=O)Cc2cc(NC(=O)Nc3cccc4ccccc34)ccc2O[C@@H]1CN(C)Cc1ccc2c(c1)OCO2,inactive,active,inactive
C[C@H](CO)N1C[C@H](C)[C@H](CN(C)C(=O)C2CCCCC2)Oc2ncc(C#CC3(O)CCCC3)cc2C1=O,inactive,inactive,inactive
CC1(COc2ccc3c(c2)ncn3-c2ccc3cccc(N4CCC(N)CC4)c3n2)COC1,active,active,inactive
C[C@@H]1CCCCO[C@@H](CN(C)Cc2ccc(Cl)c(Cl)c2)[C@H](C)CN([C@@H](C)CO)C(=O)c2cc(NS(=O)(=O)c3ccc(Cl)cc3)ccc2O1,active,active,inactive
C[C@H]1CN([C@@H](C)CO)C(=O)Cc2cc(NS(=O)(=O)c3ccc(Cl)cc3)ccc2O[C@@H]1CN(C)Cc1ccc(-c2ccccc2)cc1,inactive,inactive,inactive
C[C@@H]1CCCCO[C@H](CN(C)S(=O)(=O)c2ccccc2)[C@H](C)CN([C@@H](C)CO)C(=O)c2cc(NC(=O)Nc3ccc4c(c3)OCO4)ccc2O1,inactive,inactive,inactive

SMILES,cytotoxicity call [1],cytotoxicity call [2],growth inhibition call [3]
Nc1nnc(SCC(=O)NC[C@H]2CCCO2)[nH]1,inactive,inactive,inactive
Cc1noc(C)c1S(=O)(=O)Nc1ccc2c(c1)C(=O)N([C@H](C)CO)C[C@H](C)[C@H](CN(C)Cc1ccccc1)O2,inactive,inactive,inactive
C[C@@H]1CN([C@H](C)CO)C(=O)c2cc(-c3ccncc3)cnc2O[C@@H]1CN(C)S(=O)(=O)c1ccc(F)cc1,inactive,inactive,inactive
C[C@H](CO)N1C[C@H](C)[C@@H](CN(C)S(=O)(=O)c2cccs2)Oc2ccc(NC(=O)Cc3ccccc3)cc2CC1=O,inactive,inactive,inactive
COc1ccc(NC(=O)N(C)C[C@@H]2OCCCC[C@@H](C)Oc3ccc(NS(=O)(=O)c4ccc(OC)cc4)cc3C(=O)N([C@@H](C)CO)C[C@H]2C)cc1,inactive,inactive,inactive
C[C@@H]1CN([C@@H](C)CO)C(=O)Cc2cc(NC(=O)CCC(F)(F)F)ccc2O[C@@H]1CN(C)Cc1ccc(-c2ccccc2)cc1,inactive,inactive,inactive
C[C@H](CO)N1C[C@H](C)[C@@H](CN(C)Cc2ccc(C(=O)O)cc2)OCCCC[C@H](C)Oc2ccc(NC(=O)Nc3cccc4ccccc34)cc2C1=O,inactive,inactive,inactive
Cc1[nH]c(=O)n(C(C)(C)C)c(=O)c1C,inactive,inactive,inactive
C[C@@H]1CCCCO[C@H](CN(C)S(=O)(=O)c2cccs2)[C@H](C)CN([C@@H](C)CO)C(=O)c2cc(NC(=O)c3ccccc3)ccc2O1,inactive,inactive,inactive
C[C@H]1CCCCO[C@H](CN(C)C(=O)c2ccccc2)[C@@H](C)CN([C@@H](C)CO)C(=O)c2cc(NC(=O)Cc3ccccc3)ccc2O1,inactive,inactive,inactive
C[C@@H]1CN([C@@H](C)CO)C(=O)c2cccc(NS(=O)(=O)c3cn(C)cn3)c2O[C@@H]1CN(C)S(=O)(=O)c1cccs1,inactive,inactive,inactive
C[C@H]1CN([C@@H](C)CO)C(=O)c2cc(NC(=O)CCN3CCOCC3)ccc2O[C@@H]1CN(C)S(=O)(=O)c1cccs1,inactive,inactive,inactive
C[C@H]1CN([C@@H](C)CO)S(=O)(=O)c2ccc(C#Cc3ccncc3)cc2O[C@H]1CN(C)C(=O)c1ccncc1,inactive,active,inactive
C[C@@H]1CN([C@H](C)CO)C(=O)c2cc(NC(=O)Nc3ccc(C(F)(F)F)cc3)ccc2O[C@@H](C)CCCCO[C@@H]1CN(C)Cc1ccc2c(c1)OCO2,active,active,inactive
C[C@@H]1CN([C@@H](C)CO)C(=O)c2cccc(NC(=O)CCCCCC(=O)Nc3ccccc3N)c2O[C@@H]1CN(C)C(=O)Nc1cccc2ccccc12,inactive,inactive,inactive
CN(C)CC(=O)N1[C@@H]2Cn3c(ccc(C4=CCCC4)c3=O)[C@H]1[C@@H](C(=O)NCC1CC1)[C@@H]2CO,inactive,inactive,inactive
C[C@@H]1CCCCO[C@H](CN(C)C(=O)c2ccncc2)[C@@H](C)CN([C@@H](C)CO)C(=O)c2cc(NS(C)(=O)=O)ccc2O1,inactive,inactive,inactive
CCN1CCO[C@@]2(O)C=CC(=O)C=C12,inactive,inactive,inactive
O=C(Cn1cnnn1)NC1C(=O)N2C(C(=O)O)=C(CSc3nncs3)CSC12 (stereo not given),inactive,inactive,active
C[C@@H]1CCCCO[C@@H](CN(C)Cc2ccc(Cl)c(Cl)c2)[C@H](C)CN([C@H](C)CO)C(=O)c2cc(N(C)C)ccc2O1,inactive,active,inactive
C[C@H]1CN([C@@H](C)CO)C(=O)c2cc(NS(=O)(=O)c3cn(C)cn3)ccc2O[C@H]1CN(C)Cc1ccc2c(c1)OCO2,inactive,inactive,inactive
CC(C)(O)C#Cc1ccc([C@H]2[C@@H](CO)N3CCCCN(S(C)(=O)=O)C[C@@H]23)cc1,inactive,inactive,inactive
Cc1noc(C)c1S(=O)(=O)Nc1ccc2c(c1)C(=O)N([C@@H](C)CO)C[C@@H](C)[C@@H](CN(C)C(=O)Nc1ccc(C(F)(F)F)cc1)OCCCC[C@H](C)O2,inactive,inactive,inactive
C[C@H]1COC(=O)[C@@H](Cc2ccc(F)cc2)CCC=CC[C@@H](CC(=O)N[C@H](CO)Cc2ccccc2)C(=O)N1,inactive,inactive,inactive
Cc1ccc(S(=O)(=O)N(C)C[C@H]2OCCCC[C@@H](C)Oc3ccc(NC(=O)CCC(F)(F)F)cc3C(=O)N([C@@H](C)CO)C[C@@H]2C)cc1,inactive,inactive,inactive
CN(C)CC#Cc1ccc([C@H]2[C@H]3CN(C(=O)CN(C)C)CC(=O)N3[C@H]2CO)cc1,inactive,inactive,inactive
CCC(=O)N1C[C@]2(CN(C2)C(=O)CN2CCOCC2)c2c([nH]c3cc(ccc23)OC)[C@H]1CO,inactive,inactive,inactive
